Experimental findings from PubChem BioAssay (NCATS) are described below.

The other results are listed elsewhere or left out. The main result of the screen is listed elsewhere. These columns were measured beside it and carry no call. The list favours compounds with an active or inconclusive main result. Potencies come from curve fits of mixed quality, noted in brackets.
Tags give direction and shape of the fitted curve.

This assay in a line: qHTS Assay for Lipid Storage Modulators (AID 1519). To be noted: Drosophila S3 cells, BODIPY lipid droplet/cell ratio, laser cytometry; measured here: lipid (BODIPY) channel AC50; cells loaded with oleic acid. The essentials: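 Cells seeded at 5,000 per well were treated with compounds over a concentration series and loaded with oleic acid (400 uM, as added). Lipid droplet fluorescence (488 nm excitation, 500-530 nm channel) was read by laser-scanning cytometry and normalized to 20 uM Triacsin C.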
Consider `O=c1c(O)c(-c2ccc(O)c(O)c2)oc2ccccc12`, for which the AC50 was 4470 nM [rising, full curve, poor fit].

As for `COc1cccc(Cn2c(=O)c(-c3ccc(F)c(F)c3)nc3cncnc32)c1`, the concentration at half-maximal activity (AC50) was 35.5 nM [rising, full curve].

For `CN1CCN(c2ncc3nc(-c4cn(C)c5ccccc45)c(=O)n(C[C@H]4CCCO4)c3n2)CC1`, the AC50 was 2240 nM [rising, full curve, poor fit].

As for `O[C@@H]1[C@@H]2c3cc4c(cc3CN3CCC(=C[C@@H]1O)[C@H]23)OCO4`, the concentration at half-maximal activity (AC50) was 10000 nM [falling, partial curve, poor fit].

For `COC(=O)N1CCC2(CC1)CCN(c1ccncc1)CC2`, the concentration at half-maximal activity (AC50) was 224 nM [rising, partial curve, poor fit].

As for `CC(=O)OC1CC[C@@]2(C)C3CC[C@@]4(C)C(CC5O[C@@]6(CCC(C)CO6)C(C)C54)C3CC[C@@H]2C1` (stereo not given in full), the AC50 was 39800 nM [rising, single point].

Consider `COc1ncc2nc(-c3cc(F)cc(F)c3)c(=O)n(C3CC3)c2n1`, for which the AC50 was 31.6 nM [rising, full curve, poor fit].

Take `CC1(C)C=Cc2c(cc3occ(-c4ccc5c(c4)OCO5)c(=O)c3c2O)O1`: the AC50 was 22400 nM [rising, partial curve, poor fit].

Turning to `NC(=O)c1ccccc1-c1nc(-n2ccnc2)c2ccccc2n1`, the AC50 was 3160 nM [rising, full curve, poor fit].

As for `N#Cc1ccc(CN2CCC3(CC2)CCN(C(=O)c2cnccn2)CC3)cc1`, the half-maximal activity concentration (AC50) is 251 nM [rising, partial curve, poor fit].

One may read the AC50 as the concentration giving half of the maximal activity seen.
